The text below walks through data of the supplement of paper PMC11876631.

Substitutions are numbered along the chain they refer to. Names may count otherwise. ± gives the standard deviation of the averaged measurements. Laboratory Escherichia coli strains with one amino-acid change in an essential protein, pooled on minimal glucose agar with carbenicillin or gentamicin at twice the control MIC (plus kanamycin and chloramphenicol for the plasmids), 48 h. Fold change of barcode share against drug-free plates; higher = less susceptible. Active = above 20 in both replicates (the paper's putatively resistant). '<' = one read or none on drug, '>' = one read or none on a drug-free plate. Shares are relative, so most strains fall below 1 when a few take over. Listed are strains with at least 15 reads on both drug-free plates, and hits; most hits rest on fewer reference reads. Replicate rank correlation about 0.5. Edits are read from barcodes.

This data set addresses Escherichia coli (laboratory strain). Nature of the data set: barcode share on antibiotic plates over drug-free plates; higher = less susceptible. The protocol:
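A pool of E. coli strains, each edited to carry one amino-acid change in an essential protein, was grown for 48 h on minimal glucose agar with or without antibiotic; strain barcodes were sequenced; mean of two replicates.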

[1] abbreviates: antibiotic: carbenicillin, 2× MIC (3.1 µg/mL).
Where [2] appears, read: antibiotic: gentamicin, 2× MIC (MIC 0.45 µg/mL).

B1: glnS F52A (protein)
chain: MSEAEARPTNFIRQIIDEDLASGKHTTVHTRFPPEPNGYLHIGHAKSICLNAGIAQDYKGQCNLRFDDTNPVKEDIEYVESIKNDVEWLGFHWSGNVRYSSDYFDQLHAYAIELINKGLAYVDELTPEQIREYRGTLTQPGKNSPYRDRSVEENLALFEKMRAGGFEEGKACLRAKIDMASPFIVMRDPVLYRIKFAEHHQTGNKWCIYPMYDFTHCISDALEGITHSLCTLEFQDNRRLYDWVLDNITIPVHPRQYEFSRLNLEYTVMSKRKLNLLVTDKHVEGWDDPRMPTISGLRRRGYTAASIREFCKRIGVTKQDNTIEMASLESCIREDLNENAPRAMAVIDPVKLVIENYQGEGEMVTMPNHPNKPEMGSRQVPFSGEIWIDRADFREEANKQYKRLVLGKEVRLRNAYVIKAERVEKDAEGNITTIFCTYDADTLSKDPADGRKVKGVIHWVSAAHALPVEIRLYDRLFSVPNPGAADDFLSVINPESLVIKQGFAEPSLKDAVAGKAFQFEREGYFCLDSRHSTAEKPVFNRTVGLRDTWAKVGE
Turning to B1, the “fold change of barcode share” value under setting [1] came out at 0.595 ± 0.35 and the “fold change of barcode share” value under setting [2] is less than 0.0168.

B2: glnS L277P (protein)
chain: B1 chain with A52F, L277P
On to B2, for which the “fold change of barcode share” value is, setting by setting: under setting [1], 0.582 ± 0.1; under setting [2], less than 0.00772.

B3: glnS F52W (protein)
chain: B1 chain with A52W
As to B3, the “fold change of barcode share” value came out at 0.306 ± 0.052 under setting [1] and 0.0233 ± 0.013 under setting [2].

B4: glnS L277A (protein)
chain: B1 chain with A52F, L277A
Take B4: the “fold change of barcode share” value was found to be 0.216 ± 0.018 under setting [1] and 0.00571 ± 0.0028 under setting [2].

B5: glnS F158W (protein)
chain: B1 chain with A52F, F158W
As to B5, the “fold change of barcode share” value is 0.184 ± 0.023 under setting [1] and less than 0.0126 under setting [2].

B6: glnS L277Q (protein)
chain: B1 chain with A52F, L277Q
Consider B6, for which the “fold change of barcode share” value under setting [1] was 0.29 ± 0.056 and the “fold change of barcode share” value under setting [2] is less than 0.0093.

B7: glmS I181W (protein)
chain: MCGIVGAIAQRDVAEILLEGLRRLEYRGYDSAGLAVVDAEGHMTRLRRLGKVQMLAQAAEEHPLHGGTGIAHTRWATHGEPSEVNAHPHVSEHIVVVHNGIIENHEPLREELKARGYTFVSETDTEVIAHLVNWELKQGGTLREAVLRAIPQLRGAYGTVIMDSRHPDTLLAARSGSPLVWGLGMGENFIASDQLALLPVTRRFIFLEEGDIAEITRRSVNIFDKTGAEVKRQDIESNLQYDAGDKGIYRHYMQKEIYEQPNAIKNTLTGRISHGQVDLSELGPNADELLSKVEHIQILACGTSYNSGMVSRYWFESLAGIPCDVEIASEFRYRKSAVRRNSLMITLSQSGETADTLAGLRLSKELGYLGSLAICNVPGSSLVRESDLALMTNAGTEIGVASTKAFTTQLTVLLMLVAKLSRLKGLDASIEHDIVHGLQALPSRIEQMLSQDKRIEALAEDFSDKHHALFLGRGDQYPIALEGALKLKEISYIHAEAYAAGELKHGPLALIDADMPVIVVAPNNELLEKLKSNIEEVRARGGQLYVFADQDAGFVSSDNMHIIEMPHVEEVIAPIFYTVPLQLLAYHVALIKGTDVDQPRNLAKSVTVE
Take B7: the “fold change of barcode share” value by setting is: under setting [1], 0.693 ± 0.56; under setting [2], 0.0106 ± 0.0084.

B8: argC V99A (protein)
chain: MLNTLIVGASGYAGAELVTYVNRHPHMNITALTVSAQSNDAGKLISDLHPQLKGIVDLPLQPMSDISEFSPGVDVVFLATAHEVSHDLAPQFLEAGCVAFDLSGAFRVNDATFYEKYYGFTHQYPELLEQAAYGLAEWCGNKLKEANLIAVPGCYPTAAQLALKPLIDADLLDLNQWPVINATSGVSGAGRKAAISNSFCEVSLQPYGVFTHRHQPEIATHLGADVIFTPHLGNFPRGILETITCRLKSGVTQAQVAQVLQQAYAHKPLVRLYDKGVPALKNVVGLPFCDIGFAVQGEHLIIVATEDNLLKGAAAQAVQCANIRFGYAETQSLI
For the protein B8, the “fold change of barcode share” value was 0.478 ± 0.04 under setting [1] and 0.00894 ± 0.0037 under setting [2].

B9: argC V99Q (protein)
chain: B8 chain with A99Q
Consider B9, for which the “fold change of barcode share” value is, setting by setting: under setting [1], 0.48 ± 0.06; under setting [2], 0.0191 ± 0.02.

B10: argC V99P (protein)
chain: B8 chain with A99P
On to B10, for which the “fold change of barcode share” value under setting [1] stood at 0.45 ± 0.1 and the “fold change of barcode share” value under setting [2] stood at 0.0179 ± 0.01.

B11: argC V99D (protein)
chain: B8 chain with A99D
For B11, the “fold change of barcode share” value under setting [1] amounted to 0.629 ± 0.025 and the “fold change of barcode share” value under setting [2] is 0.0473 ± 0.04.
